{
  "source": "PubChem BioAssay AID720708",
  "about": "(National Center for Advancing Translational Sciences (NCATS), 2013)",
  "note": "In all, about 360,000 compounds went through this assay and about 660 (0.18%) were called active. Inconclusive means that the source gave no clear call. Such entries were picked first, then a sample of the others. Calls follow the shape of the dose curve; as a rule, active = well fitted inhibition curve with a large enough effect; inconclusive = small, poorly fitted or top-dose-only effect; inactive = no such curve, though single readings can be large or run the other way. No potency is given beside an inconclusive call; the fits are too rough. % is scaled to controls: 0 for no effect and ±100 for the full control effect; potency is read from the fitted curve at half-maximal effect; tags tell the direction and shape of the fitted curve.",
  "data": [
    {"biological_target": "Rap guanine nucleotide exchange factor 4 (Homo sapiens) (UniProt Q8WZA2)", "sequence (Q8WZA2 whole entry, looked up)": "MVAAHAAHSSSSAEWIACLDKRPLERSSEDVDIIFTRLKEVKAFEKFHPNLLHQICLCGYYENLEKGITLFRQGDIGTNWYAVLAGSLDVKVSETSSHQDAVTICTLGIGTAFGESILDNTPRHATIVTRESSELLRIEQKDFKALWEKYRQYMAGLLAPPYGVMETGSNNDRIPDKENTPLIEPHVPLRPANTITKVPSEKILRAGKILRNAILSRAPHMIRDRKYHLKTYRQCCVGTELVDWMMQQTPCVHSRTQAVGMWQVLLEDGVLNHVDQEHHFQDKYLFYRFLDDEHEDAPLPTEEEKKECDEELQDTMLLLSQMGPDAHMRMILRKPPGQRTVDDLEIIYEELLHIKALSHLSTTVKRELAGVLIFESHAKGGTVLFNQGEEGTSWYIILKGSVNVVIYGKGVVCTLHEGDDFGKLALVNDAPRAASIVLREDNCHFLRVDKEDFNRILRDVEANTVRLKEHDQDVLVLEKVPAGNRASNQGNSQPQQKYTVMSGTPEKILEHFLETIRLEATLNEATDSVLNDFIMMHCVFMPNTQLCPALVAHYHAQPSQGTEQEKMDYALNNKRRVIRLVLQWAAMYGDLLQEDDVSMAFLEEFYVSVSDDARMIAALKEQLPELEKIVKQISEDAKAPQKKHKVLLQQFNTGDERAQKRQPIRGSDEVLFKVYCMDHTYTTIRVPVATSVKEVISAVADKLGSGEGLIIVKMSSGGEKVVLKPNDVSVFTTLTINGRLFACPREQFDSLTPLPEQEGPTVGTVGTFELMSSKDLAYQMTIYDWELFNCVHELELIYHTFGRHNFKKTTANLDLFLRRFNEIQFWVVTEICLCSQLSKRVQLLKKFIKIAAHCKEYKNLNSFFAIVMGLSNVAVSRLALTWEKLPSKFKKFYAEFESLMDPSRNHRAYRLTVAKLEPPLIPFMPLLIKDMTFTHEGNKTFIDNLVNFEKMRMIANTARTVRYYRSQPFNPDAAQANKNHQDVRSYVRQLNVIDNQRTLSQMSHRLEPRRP", "assay": "qHTS for Antagonist of cAMP-regulated guanine nucleotide exchange factor 2 (EPAC2): primary screen; also: nearly all actives have a fitted effect of over 45% in size", "conditions": "EPAC2 GEF exchange of Rap1B-BODIPY-GDP, fluorescence; activity, negative = inhibition: at 114 µM (top of the series) unless noted", "values": [
      {"smiles": "Cc1cccc2cc(CNCc3ccccc3)c(Cl)nc12", "Potency": "inconclusive [inhibitor, partial curve, poor fit]"},
      {"smiles": "COc1cc(CN2C(=O)C(C)ON=C2c2ccccc2F)cc(OC)c1", "note": "(stereo not given)", "Potency": "active: 31.6 µM"},
      {"smiles": "O=C(CSc1nc2cc(Cl)ccc2o1)N1CCOCC1", "Potency": "inactive"},
      {"smiles": "CCOc1ccc(NS(=O)(=O)c2cc(C)c(C)cc2C)cc1", "Potency": "inconclusive [inhibitor, partial curve]"},
      {"smiles": "Cc1cccc(-n2c(SCC(=O)Nc3ccc4c(c3)OCO4)nnc2-c2ccoc2C)c1", "Potency": "inactive"},
      {"smiles": "CCN(CC)S(=O)(=O)c1ccc2c(c1)nc(CCC(=O)OCC(=O)Nc1cc(Cl)cc(Cl)c1)n2C", "Potency": "inactive"},
      {"smiles": "Cn1c(-c2ccc(F)cc2)cnc1SCC(=O)Nc1ccccc1", "Potency": "inactive"},
      {"smiles": "CC(C)=CCC1=C(OCC(=O)O)C(=O)c2ccccc2C1=O", "Potency": "inconclusive [inhibitor, partial curve]"},
      {"smiles": "N[C@@H](Cc1cc(I)c(Oc2ccc(O)c(I)c2)c(I)c1)C(=O)O", "Potency": "inconclusive [inhibitor, partial curve]"},
      {"smiles": "CC(C(=O)Nc1ccc(O)cc1)c1cccc(C(=O)c2ccccc2)c1", "note": "(stereo not given)", "Potency": "inconclusive [inhibitor, single point]"},
      {"smiles": "N#CC1=C(O)C(c2ccccc2)n2c1nc(=O)c1ccccc12", "note": "(stereo not given)", "Potency": "inconclusive [inhibitor, partial curve]"},
      {"smiles": "CC12CC(c3ccccc3O1)N(C(=O)c1ccco1)C(=O)N2c1ccccc1", "note": "(stereo not given)", "Potency": "inconclusive [inhibitor, single point]"},
      {"smiles": "COc1cccc(CC2(CO)CCCN(Cc3cn[nH]c3-c3ccc(F)cc3)C2)c1", "note": "(stereo not given)", "Potency": "inactive"},
      {"smiles": "CCOc1ccccc1CN1C(=O)C2(OCCO2)c2ccccc21", "Potency": "inconclusive [inhibitor, partial curve]"},
      {"smiles": "Cc1nc2ccccc2c(=O)n1/N=C/c1ccc(O)cc1O", "Potency": "inactive"},
      {"smiles": "Cc1cc(C)c(S(=O)(=O)c2ccc(Cl)cc2C)c(Cl)n1", "Potency": "inconclusive [inhibitor, partial curve]"},
      {"smiles": "COc1ccc2c(c1)c(CCNNC(=O)C(C)(C)C)c(C)n2C(=O)c1ccc(Cl)cc1", "Potency": "inconclusive [inhibitor, single point]"},
      {"smiles": "CC(=O)OC1CC2(C)/C(=N\\O)CCC2C2CCc3cc(O)ccc3C12", "note": "(stereo not given)", "Potency": "inconclusive [inhibitor, partial curve]"},
      {"smiles": "COC(=O)CN1C(=O)c2cccc3cccc1c23", "Potency": "inconclusive [inhibitor, full curve, poor fit]"},
      {"smiles": "c1csc(-c2cc(N3CCCCC3)c3ccccc3n2)c1", "Potency": "inconclusive [inhibitor, full curve]"},
      {"smiles": "Cc1nc2nc(-c3ccc(Cl)cc3)[nH]n2c(=O)c1Cc1ccccc1", "Potency": "inconclusive [inhibitor, single point]"},
      {"smiles": "O=[N+]([O-])c1cc(C(F)(F)F)cc([N+](=O)[O-])c1NCCNC(=S)Nc1cccc(F)c1", "Potency": "inconclusive [inhibitor, partial curve]"},
      {"smiles": "O=C1NC(=S)S/C1=C\\c1ccc2ccccc2c1", "Potency": "inconclusive [inhibitor, full curve]"},
      {"smiles": "O=C(Nc1ccccc1Cc1ccccc1)c1ccccc1NS(=O)(=O)c1ccc(Cl)s1", "Potency": "active: 31.6 µM"},
      {"smiles": "COc1ccc(CCn2c(-c3cc([N+](=O)[O-])cc([N+](=O)[O-])c3)nc3nc4ccccc4nc32)cc1OC", "Potency": "inactive"},
      {"smiles": "COc1ccc(C(=O)C2CCN(CC(=O)Nc3ccc(C)cc3)CC2)cc1", "Potency": "inactive"},
      {"smiles": "CCOc1ccccc1CN1CCCC(CNS(=O)(=O)c2ccc(OC)cc2)C1", "note": "(stereo not given)", "Potency": "inconclusive [inhibitor, single point]"},
      {"smiles": "COc1cc(OC)c(NC(=O)c2ccc3c(SCC(=O)O)c4c(nc3c2)CCCC4)cc1Cl", "Potency": "inconclusive [inhibitor, partial curve]"},
      {"smiles": "COc1ccc(N2CCN(S(=O)(=O)c3c(C)n(C)c(=O)n(C)c3=O)CC2)cc1", "Potency": "inactive"},
      {"smiles": "COc1ccccc1N1CCN(c2ccc3c(c2)S(=O)(=O)c2cccc(C(=O)NCC4CC4)c2C3=O)CC1", "Potency": "inconclusive [inhibitor, single point]"},
      {"smiles": "CCOC(=O)C1=CCC(c2ccc(Cl)cc2)N(S(=O)(=O)c2ccc(C)cc2)C1", "note": "(stereo not given)", "Potency": "inactive"},
      {"smiles": "Cc1ccc(NC2=C(NCCO)C(=O)c3ccccc3C2=O)cc1", "Potency": "inconclusive [inhibitor, partial curve]"},
      {"smiles": "CCOC(=O)c1ccccc1NC(=O)COC(=O)CCC(=O)c1ccccc1", "Potency": "inconclusive [inhibitor, full curve, poor fit]"},
      {"smiles": "CCOc1ccc(C(C)NC(=O)Nc2ccccc2C(=O)OC)cc1", "note": "(stereo not given)", "Potency": "inconclusive [inhibitor, partial curve]"},
      {"smiles": "CCOC(=O)c1c(-c2cccs2)csc1NC(C)=O", "Potency": "inconclusive [inhibitor, partial curve, poor fit]"},
      {"smiles": "CCOc1ccc(C(NC(=O)CC)c2c(O)ccc3ccccc23)cc1", "note": "(stereo not given)", "Potency": "inconclusive [inhibitor, full curve]"},
      {"smiles": "O=C(c1ccc2c(c1)OCO2)[C@@H]1[C@@H]2C(=O)N(C3CCCCC3)C(=O)[C@@H]2C2c3ccccc3C=CN21", "note": "(stereo not given in full)", "Potency": "inactive"},
      {"smiles": "COc1cccc(C(C)(O)c2nc(-c3ccccc3C)cs2)c1", "note": "(stereo not given)", "Potency": "inconclusive [inhibitor, partial curve]"},
      {"smiles": "CCOC(=O)C1=C(N)N2C(=O)C(C)SC2=C(C(=O)OCC)C1c1ccc(O)cc1", "note": "(stereo not given)", "Potency": "inconclusive [inhibitor, partial curve]"},
      {"smiles": "COC(=O)[C@H]1[C@H]2C[C@@H]3c4[nH]c5cc(OC)ccc5c4CCN3C[C@H]2C[C@@H](OC(=O)c2ccc(N)cc2)[C@@H]1OC", "Potency": "inactive"},
      {"smiles": "CC(C)c1cccc(C(C)C)c1Nc1cn[nH]c1", "Potency": "inconclusive [inhibitor, partial curve]"},
      {"smiles": "COc1cc2c(c(OC)c1OC)-c1c(cc(OC)c(OC)c1OC)C[C@H](C)[C@H](C)C2", "Potency": "inconclusive [inhibitor, single point]"},
      {"smiles": "CC(C)(C)C1CCSC2=NCCC[C@]2(c2ccccc2)C1", "note": "(stereo not given in full)", "Potency": "inconclusive [inhibitor, partial curve]"},
      {"smiles": "CCC(C)[C@H]1COCCS(=O)(=O)N1Cc1ccc(Cl)cc1Cl", "note": "(stereo not given in full)", "Potency": "inconclusive [inhibitor, full curve]"},
      {"smiles": "Cc1ccc(C)c(C(=O)N(Cc2nc(-c3ccc(Cl)cc3)no2)C(C)C)c1", "Potency": "inconclusive [inhibitor, full curve]"},
      {"smiles": "COc1cc(C(C)=O)ccc1Oc1ncnc2c1cnn2-c1ccc(F)cc1", "Potency": "inconclusive [inhibitor, partial curve]"},
      {"smiles": "CCCc1nc(SCc2ccccn2)c2c(=O)n(C)c(=O)n(C)c2n1", "Potency": "inconclusive [inhibitor, partial curve]"},
      {"smiles": "O=C(C[n+]1cc(Br)cc2ccccc21)c1ccc(F)cc1", "Potency": "inconclusive [inhibitor, single point]"},
      {"smiles": "NC(=O)c1cccc(S(=O)(=O)N2CC(c3ccccc3)CC2=O)c1", "note": "(stereo not given)", "Potency": "inconclusive [inhibitor, single point]"},
      {"smiles": "C=CCOC(=O)C1=C[C@H](c2csc3ccccc23)[C@@H](CCCO)[C@H](OCC)O1", "Potency": "inconclusive [inhibitor, partial curve]"},
      {"smiles": "CC1CCN(c2ccc(C(=O)NCCc3ccccc3)cn2)CC1", "Potency": "inactive"},
      {"smiles": "COc1ccc(C(=O)Oc2cc(OC)cc(OC)c2C(C)=O)cc1", "Potency": "inconclusive [inhibitor, partial curve]"},
      {"smiles": "Cc1ccc(S(=O)(=O)N2CCCCC2c2cccnc2)c(C)c1C", "note": "(stereo not given)", "Potency": "inconclusive [inhibitor, full curve]"},
      {"smiles": "O=C(Nc1ccnn1C1CCN(C/C=C/c2ccccc2)CC1)c1ccccc1", "Potency": "inconclusive [inhibitor, single point]"},
      {"smiles": "CCCCSc1nc2c(cnn2-c2ccc(C)c(C)c2)c(=O)[nH]1", "Potency": "inconclusive [inhibitor, partial curve]"},
      {"smiles": "CC(C)N(Cc1cn(C)nc1-c1cccc(Cl)c1)Cc1nccn1C", "Potency": "inconclusive [inhibitor, partial curve]"},
      {"smiles": "CCCC[C@@H]1C[C@H]1[C@@H](NC(=O)c1ccco1)c1ccc(C(=O)OC)cc1", "Potency": "inconclusive [inhibitor, full curve]"},
      {"smiles": "[N-]=[N+]=CC(=O)C(c1ccccc1)(c1ccccc1)c1ccccc1", "Potency": "inconclusive [inhibitor, full curve]"},
      {"smiles": "CC(=O)Nc1ccc(C2=CC(=O)C[C@H](c3ccc4c(c3)OCO4)C2)cc1", "activity, negative = inhibition": "inconclusive: -10.9% [inhibitor]"},
      {"smiles": "CC1CCC(C(C)C)C(OC(=O)COC(=O)c2ccc(N)cc2)C1", "note": "(stereo not given)", "Potency": "inconclusive [inhibitor, partial curve]"},
      {"smiles": "COc1ccc(OC)c(Nc2c3ccccc3nc3ccccc23)c1", "Potency": "inconclusive [inhibitor, partial curve]"},
      {"smiles": "CCCC(CNC(=O)COC(=O)C1=NNC(=O)CC1)c1ccc(Cl)cc1Cl", "note": "(stereo not given)", "Potency": "inconclusive [inhibitor, partial curve]"},
      {"smiles": "COC(=O)c1ccc2nc(C3CCCCC3)c(Cc3cccc(F)c3)n2c1", "Potency": "inconclusive [inhibitor, partial curve]"},
      {"smiles": "Cc1snc(SCc2ccc(Cl)cc2)c1C#N", "Potency": "inconclusive [inhibitor, partial curve]"},
      {"smiles": "CCCCC1=NN(C(=O)c2ccco2)C(O)(C(F)(F)F)C1", "note": "(stereo not given)", "Potency": "inconclusive [inhibitor, single point]"}
    ]}
  ]
}
